The other results are listed elsewhere or left out.
Legend:
Experiment in all cases: glycan array binding signal (z-score within array); higher = stronger binding
Details in all cases: glycan notation: IUPAC condensed, linker removed
[1] = target: Gal(b1-4)GlcNAc(b1-6)GalNAc
Outline: (§1)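 The Consortium for Functional Glycomics database supplied 3228 glycan arrays, of which those lacking an available protein sequence were dropped. The binding signal, a within-array Z-score, was averaged across arrays of the same protein sequence and across linkers. Negative scores can be read as non-binding.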

[2] = target: Gal(b1-4)GlcNAc(b1-6)[Gal(b1-3)]GalNAc
Outline: as §1

[3] = target: Gal(b1-4)GlcNAc(b1-6)[Gal(b1-3)]GlcNAc
Outline: as §1

Gal3S(b1-3)GalNAc = target: Gal3S(b1-3)GalNAc
Outline: as §1

Gal3S(b1-3)GlcNAc = target: Gal3S(b1-3)GlcNAc
Outline: as §1

[4] = target: Gal3S(b1-3)[Fuc(a1-4)]GlcNAc
Outline: as §1

Gal3S(b1-4)Glc = target: Gal3S(b1-4)Glc
Outline: as §1

Gal3S(b1-4)Glc6S = target: Gal3S(b1-4)Glc6S
Outline: as §1

Gal3S(b1-4)GlcNAc = target: Gal3S(b1-4)GlcNAc
Outline: as §1

Gal3S(b1-4)GlcNAc6S = target: Gal3S(b1-4)GlcNAc6S
Outline: as §1

Gal3S6S(b1-4)GlcNAc = target: Gal3S6S(b1-4)GlcNAc
Outline: as §1

Gal3S6S(b1-4)GlcNAc6S = target: Gal3S6S(b1-4)GlcNAc6S
Outline: as §1

Gal4S(b1-4)GlcNAc = target: Gal4S(b1-4)GlcNAc
Outline: as §1

Gal4S6S(b1-4)GlcNAc = target: Gal4S6S(b1-4)GlcNAc
Outline: as §1

Gal6S(b1-4)Glc = target: Gal6S(b1-4)Glc
Outline: as §1

Gal6S(b1-4)Glc6S = target: Gal6S(b1-4)Glc6S
Outline: as §1

Gal6S(b1-4)GlcNAc = target: Gal6S(b1-4)GlcNAc
Outline: as §1

GalNAc(a1-3)Gal = target: GalNAc(a1-3)Gal
Outline: as §1

GalNAc(a1-3)GalNAc = target: GalNAc(a1-3)GalNAc
Outline: as §1

[5] = target: GalNAc(b1-3)Gal(a1-4)Gal(b1-4)GlcNAc
Outline: as §1

GalNAc(b1-4)GlcNAc = target: GalNAc(b1-4)GlcNAc
Outline: as §1

Glc(a1-4)Glc = target: Glc(a1-4)Glc
Outline: as §1

Glc(a1-6)Glc(a1-6)Glc = target: Glc(a1-6)Glc(a1-6)Glc
Outline: as §1

Glc(b1-4)Glc = target: Glc(b1-4)Glc
Outline: as §1

Glc(b1-6)Glc = target: Glc(b1-6)Glc
Outline: as §1

GlcA(b1-3)Gal = target: GlcA(b1-3)Gal
Outline: as §1

GlcA(b1-6)Gal = target: GlcA(b1-6)Gal
Outline: as §1

[6] = target: GlcNAc(a1-3)Gal(b1-4)GlcNAc
Outline: as §1

[7] = target: GlcNAc(a1-6)Gal(b1-4)GlcNAc
Outline: as §1

[8] = target: GlcNAc(b1-2)Gal(b1-3)GlcNAc
Outline: as §1

[9] = target: GlcNAc(b1-2)Man(a1-3)[GlcNAc(b1-2)Man(a1-6)]Man(b1-4)GlcNAc(b1-4)GlcNAc
Outline: as §1

GlcNAc(b1-3)Gal = target: GlcNAc(b1-3)Gal
Outline: as §1

[10] = target: GlcNAc(b1-3)Gal(b1-3)GalNAc
Outline: as §1

GlcNAc(b1-3)Gal(b1-4)Glc = target: GlcNAc(b1-3)Gal(b1-4)Glc
Outline: as §1

[11] = target: GlcNAc(b1-3)Gal(b1-4)GlcNAc
Outline: as §1

[12] = target: GlcNAc(b1-3)Gal(b1-4)GlcNAc(b1-3)Gal(b1-4)GlcNAc
Outline: as §1

GlcNAc(b1-3)GalNAc = target: GlcNAc(b1-3)GalNAc
Outline: as §1

[13] = target: GlcNAc(b1-3)[GlcNAc(b1-4)][GlcNAc(b1-6)]GlcNAc
Outline: as §1

[14] = target: GlcNAc(b1-3)[GlcNAc(b1-6)]Gal(b1-4)GlcNAc
Outline: as §1

[15] = target: GlcNAc(b1-3)[GlcNAc(b1-6)]GlcNAc
Outline: as §1

[16] = target: GlcNAc(b1-4)Gal(b1-4)GlcNAc
Outline: as §1

[17] = target: GlcNAc(b1-4)GlcNAc(b1-4)GlcNAc
Outline: as §1

[18] = target: GlcNAc(b1-4)GlcNAc(b1-4)GlcNAc(b1-4)GlcNAc(b1-4)GlcNAc
Outline: as §1

[19] = target: GlcNAc(b1-4)GlcNAc(b1-4)GlcNAc(b1-4)GlcNAc(b1-4)GlcNAc(b1-4)GlcNAc
Outline: as §1

[20] = target: GlcNAc(b1-4)[GlcNAc(b1-6)]GalNAc
Outline: as §1

[21] = target: GlcNAc(b1-6)Gal(b1-4)GlcNAc
Outline: as §1

GlcNAc(b1-6)GalNAc = target: GlcNAc(b1-6)GalNAc
Outline: as §1

Kdn(a2-3)Gal(b1-3)GlcNAc = target: Kdn(a2-3)Gal(b1-3)GlcNAc
Outline: as §1

Kdn(a2-3)Gal(b1-4)GlcNAc = target: Kdn(a2-3)Gal(b1-4)GlcNAc
Outline: as §1

[22] = target: Man(a1-2)Man(a1-2)Man(a1-3)Man
Outline: as §1

[23] = target: Man(a1-2)Man(a1-2)Man(a1-3)[Man(a1-2)Man(a1-3)[Man(a1-2)Man(a1-6)]Man(a1-6)]Man(b1-4)GlcNAc(b1-4)GlcNAc
Outline: as §1

[24] = target: Man(a1-2)Man(a1-2)Man(a1-3)[Man(a1-2)Man(a1-6)[Man(a1-3)]Man(a1-6)]Man(b1-4)GlcNAc(b1-4)GlcNAc
Outline: as §1

[25] = target: Man(a1-2)Man(a1-2)Man(a1-6)[Man(a1-3)]Man
Outline: as §1

Man(a1-2)Man(a1-3)Man = target: Man(a1-2)Man(a1-3)Man
Outline: as §1

[26] = target: Man(a1-2)Man(a1-3)[Man(a1-2)Man(a1-6)]Man
Outline: as §1

[27] = target: Man(a1-2)Man(a1-3)[Man(a1-3)[Man(a1-6)]Man(a1-6)]Man(b1-4)GlcNAc(b1-4)GlcNAc
Outline: as §1

[28] = target: Man(a1-2)Man(a1-3)[Man(a1-6)]Man(a1-6)[Man(a1-2)Man(a1-3)]Man(b1-4)GlcNAc(b1-4)GlcNAc
Outline: as §1

Man(a1-3)[Man(a1-6)]Man = target: Man(a1-3)[Man(a1-6)]Man
Outline: as §1

B1: Epa1 (Candida glabrata), Q6FUW5_CANGA (protein)
chain: MILNPALFLNKCVCIYTTLILLLLTNGGYATSSNDISLASKDPTTFPLGCSPDITTPKKGLSMELYSYDFRKKGSYPCWDAAYLDPNYPRTGYKSHRLLAKVDGVTGNINFYYHATKGCTPQLGHLPASYNYPKPLTMTNFTMLLYGYFRPKVTGFHTFTISADDLLFVNFGAGNAFDCCRRDSSADHFGNYQAYAIWGSKTAKDELTVHLDAGVYYPIRLFYNNREYDGALSFTFKTESNENTVSDFSEYFFSLDDTEEGCPGLISYDSSCASVKTSKIIGIDYHTETPNENLVPITKTIYHLGIPCTGTTTTPLCGSGFYDPLANKCVTINTSSTSSVTKTTSHTTSKEVSFHSSISSQKTLIPKSIPSPYGPIKSQSIPTEMETSSEISSSEYAFSDVISTPSHSPYTKKHSSLNSSSYTSTVIHSLTSYSISQGIFSTSLSEQNITSKSSTDKFSTATSMSNSITQSSIIISQSSTNNENYTTTSMHTSSDKISTETLNNSISTTTSILFSNSSTILKNNTTIISSDKDTHYHPVNPTIVCSTNKTEIICASITQPSISNSNNHWSSSVLRFNSTTVRSTLPSSAGSNETSINVPFSSSTESNASTSSTSTSNSKTVRSTLPSSAGSNETSINVPFSSSTESNTSTSSTSTSNSKTVRSTLPSSAGSNETSINVPFSSSTESNASTSSTSTSNSKTVRSTPFSSAGIIMTSLSQRNNKSASSYASSNSKCYNTADSCRKVHSTPSYLLTSSYTSEGVDYDCSLVSTKLKINDTNCLNNKHTTKSCLKTSVTTTIPTLEIKTARKSSSNTIGLHSYPTSSPNKSISSAPIIGYISSFKTIKTASPSYQTSDLTTITTITSLNNPGSTAVENTHESNDKSRKTSSNDISSKHSVIKETKDAVESSNKSHQTNTLKCSSIIIASSSHNSYESLGGTTLTLTLSKVYSPQNNDTLPFLEISEVNPSRTVLPESSKMMQYLTSTEERNKTARNTIATNIVSISTFHFEGEGNAIRMGYTQLLLMLIGIIVMNIGT
[1]
  glycan array binding signal (z-score): 2.06
[2]
  glycan array binding signal (z-score): 1.83
[3]
  glycan array binding signal (z-score): 2.48
Gal3S(b1-3)GalNAc
  glycan array binding signal (z-score): -0.554
Gal3S(b1-3)GlcNAc
  glycan array binding signal (z-score): -0.553
[4]
  glycan array binding signal (z-score): -0.55
Gal3S(b1-4)Glc
  glycan array binding signal (z-score): -0.552
Gal3S(b1-4)Glc6S
  glycan array binding signal (z-score): -0.553
Gal3S(b1-4)GlcNAc
  glycan array binding signal (z-score): -0.553
Gal3S(b1-4)GlcNAc6S
  glycan array binding signal (z-score): -0.55
Gal3S6S(b1-4)GlcNAc
  glycan array binding signal (z-score): -0.526
Gal3S6S(b1-4)GlcNAc6S
  glycan array binding signal (z-score): -0.544
Gal4S(b1-4)GlcNAc
  glycan array binding signal (z-score): -0.551
Gal4S6S(b1-4)GlcNAc
  glycan array binding signal (z-score): -0.549
Gal6S(b1-4)Glc
  glycan array binding signal (z-score): 1.86
Gal6S(b1-4)Glc6S
  glycan array binding signal (z-score): 2.71
Gal6S(b1-4)GlcNAc
  glycan array binding signal (z-score): 1.74
GalNAc(a1-3)Gal
  glycan array binding signal (z-score): -0.545
GalNAc(a1-3)GalNAc
  glycan array binding signal (z-score): -0.554
[5]
  glycan array binding signal (z-score): -0.558
GalNAc(b1-4)GlcNAc
  glycan array binding signal (z-score): -0.552
Glc(a1-4)Glc
  glycan array binding signal (z-score): -0.551
Glc(a1-6)Glc(a1-6)Glc
  glycan array binding signal (z-score): -0.555
Glc(b1-4)Glc
  glycan array binding signal (z-score): -0.554
Glc(b1-6)Glc
  glycan array binding signal (z-score): -0.553
GlcA(b1-3)Gal
  glycan array binding signal (z-score): -0.555
GlcA(b1-6)Gal
  glycan array binding signal (z-score): 1.46
[6]
  glycan array binding signal (z-score): -0.551
[7]
  glycan array binding signal (z-score): 2.27
[8]
  glycan array binding signal (z-score): -0.549
[9]
  glycan array binding signal (z-score): -0.55
GlcNAc(b1-3)Gal
  glycan array binding signal (z-score): -0.544
[10]
  glycan array binding signal (z-score): -0.549
GlcNAc(b1-3)Gal(b1-4)Glc
  glycan array binding signal (z-score): -0.555
[11]
  glycan array binding signal (z-score): -0.322
[12]
  glycan array binding signal (z-score): 0.624
GlcNAc(b1-3)GalNAc
  glycan array binding signal (z-score): -0.556
[13]
  glycan array binding signal (z-score): -0.551
[14]
  glycan array binding signal (z-score): -0.555
[15]
  glycan array binding signal (z-score): -0.555
[16]
  glycan array binding signal (z-score): -0.554
[17]
  glycan array binding signal (z-score): -0.555
[18]
  glycan array binding signal (z-score): -0.554
[19]
  glycan array binding signal (z-score): -0.556
[20]
  glycan array binding signal (z-score): -0.556
[21]
  glycan array binding signal (z-score): 1.77
GlcNAc(b1-6)GalNAc
  glycan array binding signal (z-score): -0.553
Kdn(a2-3)Gal(b1-3)GlcNAc
  glycan array binding signal (z-score): -0.549
Kdn(a2-3)Gal(b1-4)GlcNAc
  glycan array binding signal (z-score): -0.551
[22]
  glycan array binding signal (z-score): -0.552
[23]
  glycan array binding signal (z-score): -0.551
[24]
  glycan array binding signal (z-score): -0.551
[25]
  glycan array binding signal (z-score): -0.555
Man(a1-2)Man(a1-3)Man
  glycan array binding signal (z-score): -0.545
[26]
  glycan array binding signal (z-score): -0.556
[27]
  glycan array binding signal (z-score): -0.551
[28]
  glycan array binding signal (z-score): -0.556
Man(a1-3)[Man(a1-6)]Man
  glycan array binding signal (z-score): -0.546

— the supplement of paper PMC8728848
